{"source": "the supplement of paper PMC12217912", "parents": {"B1": {"name": "TEV protease; numbered along this chain (parent)", "chain": "MGESLFKGPRDYNPISSSICHLTNESDGHTTSLYGIGFGPFIITNKHLFRRNNGTLVVQSLHGVFKVKDTTTLQQHLVDGRDMIIIRMPKDFPPFPQKLKFREPQREERICLVTTNFQTKSMSSMVSDTSCTFPSGDGIFWKHWIQTKDGQCGSPLVSTRDGFIVGIHSASNFTNTNNYFTSVPKNFMELLTNQEAQQWVSGWRLNADSVLWGGHKVFMVKPEEPFQPVKEATQL"}}, "variants_of": "B1", "test": "raw area under fraction-flipped curve 0-4 h after induction (AUC4h, not background-subtracted), DNA-recorder readout of cleavage of the substrate (dimensionless); higher = more cleavage of the substrate by the protease variant", "conditions": "temperature: 34 °C; time window: 0-4 h after rhamnose induction", "procedure": "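In vivo DNA recorder in E. coli TOP10(DE3) ΔrhaA at 34 °C. Each TEVp single-site mutant (parent TEVp 0) is paired with a single-site variant of the 7-mer TEVs (canonical ENLYFQ|S). The substrate sits between flexible linkers in a Bxb1-sfGFP-TEVs-SsrA fusion, so cleavage stabilises Bxb1 and speeds flipping of a recombination array, read by NGS. The value is the raw area under the fraction-flipped curve over 0-4 h after rhamnose induction (AUC4h), with ≥20 reads per time point. It is not background-subtracted; inactive controls average about 0.047.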", "note": "Some of the results follow. The full chains were built here from the parent and the listed change. Values near 0.05 are background.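 Further: Bxb1 expression induced with 0.2% (w/v) L-rhamnose at OD600 near 0.5, cultures sampled hourly, flipped fraction per protease–substrate barcode pair counted by paired-end Illumina sequencing.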", "data": [{"variant": "MGESLFKGPRDYNPISSSICHLTNESDGHTTSLYGIGFGPFIITNKHLFRRNNGTLVVQSLHGVFKVKDTTTLQQHLVDGRDMIIIRMPKDFPPFPQKLKFREPQREERICLVTTNFQTKSMSSMVSDTSCTFPSGDGIFWKHWIQTKDGQCGSPLVSTRDGFIVGIHCASNFTNTNNYFTSVPKNFMELLTNQEAQQWVSGWRLNADSVLWGGHKVFMVKPEEPFQPVKEATQL", "note": "[S169C]", "values": [{"measurement": "area with substrate CNLYFQS", "result": 0.0601}, {"measurement": "area with substrate GNLYFQS", "result": 0.0771}, {"measurement": "area with substrate HNLYFQS", "result": 0.0658}, {"measurement": "area with substrate KNLYFQS", "result": 0.0775}, {"measurement": "area with substrate PNLYFQS", "result": 0.0422}, {"measurement": "area with substrate RNLYFQS", "result": 0.0393}, {"measurement": "area with substrate TNLYFQS", "result": 0.0489}, {"measurement": "area with substrate WNLYFQS", "result": 0.0648}]}, {"variant": "MGESLFKGPRDYNPISSSICHLTNESDGHTTSLYGIGFGPFIITNKHLFRRNNGTLVVQSLHGVFKVKDTTTLQQHLVDGRDMIIIRMPKDFPPFPQKLKFREPQREERICLVTTNFQTKSMSSMVSDTSCTFPSGDGIFWKHWIQTKDGQCGSPLVSTRDGFIVGIHNASNFTNTNNYFTSVPKNFMELLTNQEAQQWVSGWRLNADSVLWGGHKVFMVKPEEPFQPVKEATQL", "note": "[S169N]", "values": [{"measurement": "area with substrate CNLYFQS", "result": 0.0514}, {"measurement": "area with substrate FNLYFQS", "result": 0.0471}, {"measurement": "area with substrate HNLYFQS", "result": 0.0553}, {"measurement": "area with substrate INLYFQS", "result": 0.04}, {"measurement": "area with substrate LNLYFQS", "result": 0.0546}, {"measurement": "area with substrate PNLYFQS", "result": 0.0629}, {"measurement": "area with substrate QNLYFQS", "result": 0.0577}, {"measurement": "area with substrate SNLYFQS", "result": 0.0493}, {"measurement": "area with substrate TNLYFQS", "result": 0.0565}, {"measurement": "area with substrate YNLYFQS", "result": 0.0532}]}, {"variant": "MGESLFKGPRDYNPISSSICHLTNESDGHTTSLYGIGFGPFIITNKHLFRRNNGTLVVQSLHGVFKVKDTTTLQQHLVDGRDMIIIRMPKDFPPFPQKLKFREPQREERICLVTTNFQTKSMSSMVSDTSCTFPSGDGIFWKHWIQTKDGQCGSPLVSTRDGFIVGIHSAGNFTNTNNYFTSVPKNFMELLTNQEAQQWVSGWRLNADSVLWGGHKVFMVKPEEPFQPVKEATQL", "note": "[S171G]", "values": [{"measurement": "area with substrate CNLYFQS", "result": 0.056}, {"measurement": "area with substrate GNLYFQS", "result": 0.0538}, {"measurement": "area with substrate INLYFQS", "result": 0.0734}, {"measurement": "area with substrate KNLYFQS", "result": 0.0699}, {"measurement": "area with substrate MNLYFQS", "result": 0.0356}, {"measurement": "area with substrate NNLYFQS", "result": 0.0486}, {"measurement": "area with substrate PNLYFQS", "result": 0.0553}, {"measurement": "area with substrate SNLYFQS", "result": 0.0229}, {"measurement": "area with substrate TNLYFQS", "result": 0.062}]}, {"variant": "MGESLFKGPRDYNPISSSICHLTNESDGHTTSLYGIGFGPFIITNKHLFRRNNGTLVVQSLHGVFKVKDTTTLQQHLVDGRDMIIIRMPKDFPPFPQKLKFREPQREERICLVTTNFQTKSMSSMVSDTSCTFPSGDGIFWKHWIQTKDGQCGSPLVSTRDGFIVGIHSASNFTNTVNYFTSVPKNFMELLTNQEAQQWVSGWRLNADSVLWGGHKVFMVKPEEPFQPVKEATQL", "note": "[N177V]", "values": [{"measurement": "area with substrate CNLYFQS", "result": 0.122}, {"measurement": "area with substrate FNLYFQS", "result": 0.0862}, {"measurement": "area with substrate GNLYFQS", "result": 0.145}, {"measurement": "area with substrate HNLYFQS", "result": 0.0732}, {"measurement": "area with substrate INLYFQS", "result": 0.087}, {"measurement": "area with substrate LNLYFQS", "result": 0.0855}, {"measurement": "area with substrate MNLYFQS", "result": 0.0989}, {"measurement": "area with substrate PNLYFQS", "result": 0.134}, {"measurement": "area with substrate SNLYFQS", "result": 0.103}, {"measurement": "area with substrate TNLYFQS", "result": 0.0833}, {"measurement": "area with substrate WNLYFQS", "result": 0.0707}, {"measurement": "area with substrate YNLYFQS", "result": 0.0881}]}, {"variant": "MGESLFKGPRDYNPISSSICHLTNESDGHTTSLYGIGFGPFIITNKHLFRRNNGTLVVQSLHGVFKVKDTTTLQQHLVDGRDMIIIRMPKDFPPFPQKLKFREPQREERICLVTTNFQTKSMSSMVSDTSCTFPSGDGIFWKHWIQTKDGQCGSPLVSTRDGFIVGIHSASNFTNTNIYFTSVPKNFMELLTNQEAQQWVSGWRLNADSVLWGGHKVFMVKPEEPFQPVKEATQL", "note": "[N178I]", "values": [{"measurement": "area with substrate CNLYFQS", "result": 0.0552}, {"measurement": "area with substrate DNLYFQS", "result": 0.048}, {"measurement": "area with substrate FNLYFQS", "result": 0.0362}, {"measurement": "area with substrate NNLYFQS", "result": 0.0495}, {"measurement": "area with substrate SNLYFQS", "result": 0.0629}, {"measurement": "area with substrate VNLYFQS", "result": 0.0579}]}, {"variant": "MGESLFKGPRDYNPISSSICHLTNESDGHTTSLYGIGFGPFIITNKHLFRRNNGTLVVQSLHGVFKVKDTTTLQQHLVDGRDMIIIRMPKDFPPFPQKLKFREPQREERICLVTTNFQTKSMSSMVSDTSCTFPSGDGIFWKHWIQTKDGQCGSPLVSTRDGFIVGIHSASNFTNTNNYITSVPKNFMELLTNQEAQQWVSGWRLNADSVLWGGHKVFMVKPEEPFQPVKEATQL", "note": "[F180I]", "values": [{"measurement": "area with substrate CNLYFQS", "result": 0.0525}, {"measurement": "area with substrate FNLYFQS", "result": 0.0419}, {"measurement": "area with substrate GNLYFQS", "result": 0.0501}, {"measurement": "area with substrate HNLYFQS", "result": 0.0534}, {"measurement": "area with substrate INLYFQS", "result": 0.049}, {"measurement": "area with substrate KNLYFQS", "result": 0.0566}, {"measurement": "area with substrate NNLYFQS", "result": 0.0473}, {"measurement": "area with substrate TNLYFQS", "result": 0.0475}, {"measurement": "area with substrate VNLYFQS", "result": 0.0565}, {"measurement": "area with substrate WNLYFQS", "result": 0.052}, {"measurement": "area with substrate YNLYFQS", "result": 0.038}]}, {"variant": "MGESLFKGPRDYNPISSSICHLTNESDGHTTSLYGIGFGPFIITNKHLFRRNNGTLVVQSLHGVFKVKDTTTLQQHLVDGRDMIIIRMPKDFPPFPQKLKFREPQREERICLVTTNFQTKSMSSMVSDTSCTFPSGDGIFWKHWIQTKDGQCGSPLVSTRDGFIVGIHSASNFTNTNNYFGSVPKNFMELLTNQEAQQWVSGWRLNADSVLWGGHKVFMVKPEEPFQPVKEATQL", "note": "[T181G]", "values": [{"measurement": "area with substrate CNLYFQS", "result": 0.0693}, {"measurement": "area with substrate FNLYFQS", "result": 0.0683}, {"measurement": "area with substrate GNLYFQS", "result": 0.058}, {"measurement": "area with substrate LNLYFQS", "result": 0.0547}, {"measurement": "area with substrate MNLYFQS", "result": 0.0496}, {"measurement": "area with substrate NNLYFQS", "result": 0.0596}, {"measurement": "area with substrate PNLYFQS", "result": 0.0553}, {"measurement": "area with substrate TNLYFQS", "result": 0.0528}, {"measurement": "area with substrate VNLYFQS", "result": 0.0588}, {"measurement": "area with substrate WNLYFQS", "result": 0.0516}]}, {"variant": "MGESLFKGPRDYNPISSSICHLTNESDGHTTSLYGIGFGPFIITNKHLFRRNNGTLVVQSLHGVFKVKDTTTLQQHLVDGRDMIIIRMPKDFPPFPQKLKFREPQREERICLVTTNFQTKSMSSMVSDTSCTFPSGDGIFWKHWIQTKDGQCGSPLVSTRDGFIVGIHSASNFTNTNNYFTWVPKNFMELLTNQEAQQWVSGWRLNADSVLWGGHKVFMVKPEEPFQPVKEATQL", "note": "[S182W]", "values": [{"measurement": "area with substrate CNLYFQS", "result": 0.0536}, {"measurement": "area with substrate DNLYFQS", "result": 0.0578}, {"measurement": "area with substrate GNLYFQS", "result": 0.0676}, {"measurement": "area with substrate HNLYFQS", "result": 0.0523}, {"measurement": "area with substrate LNLYFQS", "result": 0.0687}, {"measurement": "area with substrate MNLYFQS", "result": 0.0524}, {"measurement": "area with substrate PNLYFQS", "result": 0.0774}, {"measurement": "area with substrate VNLYFQS", "result": 0.0474}, {"measurement": "area with substrate WNLYFQS", "result": 0.0503}, {"measurement": "area with substrate YNLYFQS", "result": 0.056}]}, {"variant": "MGESLFKGPRDYNPISSSICHLTNESDGHTTSLYGIGFGPFIITNKHLFRRNNGTLVVQSLHGVFKVKDTTTLQQHLVDGRDMIIIRMPKDFPPFPQKLKFREPQREERICLVTTNFQTKSMSSMVSDTSCTFPSGDGIFWKHWIQTKDGQCGSPLVSTRDGFIVGIHSASNFTNTNNYFTSCPKNFMELLTNQEAQQWVSGWRLNADSVLWGGHKVFMVKPEEPFQPVKEATQL", "note": "[V183C]", "values": [{"measurement": "area with substrate CNLYFQS", "result": 0.0649}, {"measurement": "area with substrate FNLYFQS", "result": 0.0697}, {"measurement": "area with substrate GNLYFQS", "result": 0.12}, {"measurement": "area with substrate HNLYFQS", "result": 0.0829}, {"measurement": "area with substrate INLYFQS", "result": 0.0656}, {"measurement": "area with substrate KNLYFQS", "result": 0.0554}, {"measurement": "area with substrate LNLYFQS", "result": 0.0651}, {"measurement": "area with substrate MNLYFQS", "result": 0.0627}, {"measurement": "area with substrate PNLYFQS", "result": 0.048}, {"measurement": "area with substrate SNLYFQS", "result": 0.0672}, {"measurement": "area with substrate WNLYFQS", "result": 0.0141}, {"measurement": "area with substrate YNLYFQS", "result": 0.0566}]}, {"variant": "MGESLFKGPRDYNPISSSICHLTNESDGHTTSLYGIGFGPFIITNKHLFRRNNGTLVVQSLHGVFKVKDTTTLQQHLVDGRDMIIIRMPKDFPPFPQKLKFREPQREERICLVTTNFQTKSMSSMVSDTSCTFPSGDGIFWKHWIQTKDGQCGSPLVSTRDGFIVGIHSASNFTNTNNYFTSIPKNFMELLTNQEAQQWVSGWRLNADSVLWGGHKVFMVKPEEPFQPVKEATQL", "note": "[V183I]", "values": [{"measurement": "area with substrate CNLYFQS", "result": 0.0616}, {"measurement": "area with substrate GNLYFQS", "result": 0.059}, {"measurement": "area with substrate INLYFQS", "result": 0.0612}, {"measurement": "area with substrate PNLYFQS", "result": 0.0749}, {"measurement": "area with substrate SNLYFQS", "result": 0.0761}, {"measurement": "area with substrate VNLYFQS", "result": 0.0657}, {"measurement": "area with substrate WNLYFQS", "result": 0.0635}, {"measurement": "area with substrate YNLYFQS", "result": 0.0636}]}]}
